According to PMC7110144:
Where a chain is given by its changes, count along the chain named. These are yes or no findings as the source states them, for the method shown. Some results given as binding are weak or reduced against the parent protein; the word gives no strength. For some assays here: Where a sequence is shown, tags or fusion partners need not be part of it. Values belong to the substance of their own block, whether it stands above or below them.

Amino acid sequences for entries named in this document (tags omitted). A change or cut given only in a name is not applied to a line headed by its entry. Chains listed by the source or under a name are the forms on record and can include a tag or linker.
UniProt Q9V6Q2: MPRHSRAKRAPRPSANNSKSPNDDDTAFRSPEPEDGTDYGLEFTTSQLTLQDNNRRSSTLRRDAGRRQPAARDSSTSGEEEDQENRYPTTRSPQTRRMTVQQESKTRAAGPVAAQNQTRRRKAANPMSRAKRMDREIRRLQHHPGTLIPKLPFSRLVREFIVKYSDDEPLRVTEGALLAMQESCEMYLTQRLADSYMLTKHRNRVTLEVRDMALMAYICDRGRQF
UniProt Q9VEN2: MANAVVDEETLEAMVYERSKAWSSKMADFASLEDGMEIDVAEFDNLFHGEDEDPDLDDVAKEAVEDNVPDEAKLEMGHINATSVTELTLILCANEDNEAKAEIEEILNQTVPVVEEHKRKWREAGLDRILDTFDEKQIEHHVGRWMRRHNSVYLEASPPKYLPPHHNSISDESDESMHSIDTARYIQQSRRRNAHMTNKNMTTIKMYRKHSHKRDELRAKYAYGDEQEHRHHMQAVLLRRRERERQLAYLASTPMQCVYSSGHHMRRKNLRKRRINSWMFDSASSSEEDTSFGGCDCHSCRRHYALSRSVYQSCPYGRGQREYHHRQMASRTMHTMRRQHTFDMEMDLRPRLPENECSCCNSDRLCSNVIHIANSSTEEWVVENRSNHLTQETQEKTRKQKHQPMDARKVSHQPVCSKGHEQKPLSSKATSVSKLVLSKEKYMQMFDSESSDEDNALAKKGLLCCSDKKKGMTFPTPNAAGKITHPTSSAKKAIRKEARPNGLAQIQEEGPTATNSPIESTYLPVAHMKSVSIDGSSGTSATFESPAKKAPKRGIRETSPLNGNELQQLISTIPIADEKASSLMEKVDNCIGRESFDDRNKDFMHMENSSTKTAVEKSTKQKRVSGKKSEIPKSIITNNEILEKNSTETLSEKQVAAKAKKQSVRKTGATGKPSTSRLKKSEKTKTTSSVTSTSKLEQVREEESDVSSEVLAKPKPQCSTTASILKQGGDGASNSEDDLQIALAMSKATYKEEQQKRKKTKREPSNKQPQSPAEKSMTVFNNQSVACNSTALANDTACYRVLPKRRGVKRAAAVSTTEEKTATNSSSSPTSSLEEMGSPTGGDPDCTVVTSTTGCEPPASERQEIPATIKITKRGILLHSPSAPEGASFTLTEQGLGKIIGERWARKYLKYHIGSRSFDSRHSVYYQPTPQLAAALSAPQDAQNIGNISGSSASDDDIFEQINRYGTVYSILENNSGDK
His-SUMO-CAL1(841-979 I900R/K907A/Y908A) (Q9VEN2, form named): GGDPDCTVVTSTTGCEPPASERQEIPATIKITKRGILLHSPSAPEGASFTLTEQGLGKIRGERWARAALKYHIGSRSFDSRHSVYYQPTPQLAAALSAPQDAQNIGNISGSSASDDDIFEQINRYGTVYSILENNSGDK

Assays:
[1] = target: CENP-A-GFP-LacI (in U2OS cells) (Drosophila melanogaster) (UniProt Q9V6Q2); test: LacO/LacI tethering assay (recruitment seen by immunofluorescence); human U2OS cells with a LacO array; GFP-LacI fusion tethered, recruitment of co-transfected CAL1-V5 measured at the LacO spot
[2] = target: T1, GFP-LacI-CENP-C (in U2OS cells) (Drosophila melanogaster) (UniProt Q9VHP9); test: as above
T1 sequence: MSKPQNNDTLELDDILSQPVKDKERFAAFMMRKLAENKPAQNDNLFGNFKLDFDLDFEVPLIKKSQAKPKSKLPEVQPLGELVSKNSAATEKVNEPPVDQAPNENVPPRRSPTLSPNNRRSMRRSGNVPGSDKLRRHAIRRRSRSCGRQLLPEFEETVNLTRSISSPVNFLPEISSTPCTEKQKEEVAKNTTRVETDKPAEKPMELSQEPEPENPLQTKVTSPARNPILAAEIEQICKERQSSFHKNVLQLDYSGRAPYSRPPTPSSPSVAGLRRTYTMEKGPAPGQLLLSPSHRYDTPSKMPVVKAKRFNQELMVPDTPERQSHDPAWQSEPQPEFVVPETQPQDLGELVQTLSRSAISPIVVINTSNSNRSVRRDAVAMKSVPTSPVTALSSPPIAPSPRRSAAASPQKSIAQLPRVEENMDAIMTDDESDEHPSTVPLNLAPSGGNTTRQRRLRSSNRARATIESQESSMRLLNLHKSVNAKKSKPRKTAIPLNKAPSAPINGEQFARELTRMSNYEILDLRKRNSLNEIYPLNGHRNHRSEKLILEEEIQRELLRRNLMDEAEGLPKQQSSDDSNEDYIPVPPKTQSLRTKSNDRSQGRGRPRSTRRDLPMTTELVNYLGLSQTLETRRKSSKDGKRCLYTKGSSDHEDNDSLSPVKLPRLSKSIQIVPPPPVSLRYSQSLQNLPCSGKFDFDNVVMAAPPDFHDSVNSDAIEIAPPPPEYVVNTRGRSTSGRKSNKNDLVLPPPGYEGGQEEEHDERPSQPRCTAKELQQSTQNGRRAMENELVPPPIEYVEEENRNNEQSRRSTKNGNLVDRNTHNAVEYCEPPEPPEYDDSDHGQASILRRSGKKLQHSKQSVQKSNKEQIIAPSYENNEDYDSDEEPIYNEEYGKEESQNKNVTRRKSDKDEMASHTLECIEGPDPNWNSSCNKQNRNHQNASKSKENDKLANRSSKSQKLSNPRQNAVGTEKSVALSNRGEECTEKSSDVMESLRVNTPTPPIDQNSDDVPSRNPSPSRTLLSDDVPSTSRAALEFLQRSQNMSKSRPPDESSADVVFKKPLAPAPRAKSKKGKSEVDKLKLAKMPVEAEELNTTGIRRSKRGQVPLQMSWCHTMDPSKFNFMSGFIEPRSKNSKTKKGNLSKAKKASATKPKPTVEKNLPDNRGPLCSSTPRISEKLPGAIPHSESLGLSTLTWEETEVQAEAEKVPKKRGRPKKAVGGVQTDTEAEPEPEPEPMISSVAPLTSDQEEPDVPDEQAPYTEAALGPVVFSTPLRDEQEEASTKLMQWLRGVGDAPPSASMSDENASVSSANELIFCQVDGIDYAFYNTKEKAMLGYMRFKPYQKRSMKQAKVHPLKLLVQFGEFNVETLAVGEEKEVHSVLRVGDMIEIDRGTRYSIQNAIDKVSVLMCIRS

[3] = target: CENP-A-GFP-LacI (in S2 cells) (Drosophila melanogaster) (UniProt Q9V6Q2); test: LacO/LacI tethering assay (recruitment seen by immunofluorescence); Drosophila Schneider S2 cells with a LacO array; GFP-LacI fusion tethered, recruitment of co-transfected tagged CAL1 measured at the LacO spot
[4] = target: CAL1(841-979) (Drosophila melanogaster) (UniProt Q9VEN2); test: AUC; sedimentation velocity (49 k rpm) and sedimentation equilibrium (26 k rpm), 4°C; untagged proteins and SEC purified untagged complex; a range of concentrations, up to 10 mg/ml; both purified
[5] = target: T2, GFP-LacI-CENP-C (in S2 cells) (Drosophila melanogaster) (UniProt Q9VHP9); test: LacO/LacI tethering assay (recruitment seen by immunofluorescence); Drosophila Schneider S2 cells with a LacO array; GFP-LacI fusion tethered, recruitment of co-transfected tagged CAL1 measured at the LacO spot
T2 sequence: T1 sequence

[6] = target: T3, His-CENP-C(1264-1411) (Drosophila melanogaster) (UniProt Q9VHP9); test: SEC; individually purified proteins mixed (CENP-C in molar excess); Superdex 75 or Superdex 75 increase 10/300, 20 mM Tris-HCl pH 8.0, 100 mM NaCl, 2 mM DTT; fractions on SDS-PAGE; both purified
T3 sequence: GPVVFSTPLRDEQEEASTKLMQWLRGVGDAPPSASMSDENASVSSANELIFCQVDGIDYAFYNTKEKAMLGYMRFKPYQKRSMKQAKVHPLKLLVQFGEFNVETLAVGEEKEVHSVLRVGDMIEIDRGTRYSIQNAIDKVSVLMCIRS

[7] = target: T4, His-CENP-C(1264-1411 F1324R) (Drosophila melanogaster) (UniProt Q9VHP9); test: as above
T4 sequence: T3 sequence with F61R

[8] = target: T5, His-CENP-C(1264-1411 L1357E/M1407E) (Drosophila melanogaster) (UniProt Q9VHP9); test: as above
T5 sequence: T3 sequence with L94E, M144E

Substance: CAL1(841-979) (from UniProt Q9VEN2 841-979) (domain or fragment)
binding [4]: no binding

Substance: His-SUMO-CAL1(841-979 I900R/K907A/Y908A) (from UniProt Q9VEN2 841-979) (domain or fragment)
binding [6]: no binding

Substance: His-SUMO-CAL1(841-979) (from UniProt Q9VEN2 841-979) (domain or fragment)
binding [7]: no binding | binding [8]: no binding

Further lines, results first:

binding [1]: binds | binding [2]: binds
Substance: CAL1-V5 (in U2OS cells) (from UniProt Q9VEN2 1-979)

binding [3]: binds
Substance: CAL1(F43R)-V5 (in S2 cells) (from UniProt Q9VEN2 1-979)

binding [5]: binds
Substance: CAL1-HA (in S2 cells) (from UniProt Q9VEN2 1-979)
